Source: the supplement of paper PMC4967469

How the values were obtained:
Test in all cases: Viability of human cancer cell lines after 72 h of drug (GDSC screen)
QS11 = compound: OC[C@H](Cc1ccccc1)Nc1nc(Oc2ccc3c(c2)CCC3)nc2c1ncn2Cc1ccc(-c2ccccc2)cc1 [QS11]; conditions: top dose 10.24 µM
Procedure: (§1)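 Human cancer cell lines in 384-well plates, medium with 10% serum, drug for 72 h over a 256-fold dose range (nine 2-fold or five 4-fold steps up to the top dose). Adherent lines were fixed and stained with the nucleic acid dye Syto60, suspension lines read with resazurin; signal relative to control wells, capped at 0 and 100%. One two-parameter sigmoid per drug and line, fitted in a mixed model over all curves with the slope shared within a line.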

JNK-9L = compound: Fc1cc(-c2ccnc(Nc3ccc(-n4cnc(N5CCOCC5)n4)cc3)n2)cc(N2CCOCC2)c1 [JNK-9L]; conditions: top dose 5.12 µM; top dose inferred
Procedure: as §1

OSU-03012 = compound: NCC(=O)Nc1ccc(-n2nc(C(F)(F)F)cc2-c2ccc3c(ccc4ccccc43)c2)cc1 [OSU-03012]; conditions: top dose 16 µM; top dose inferred
Procedure: as §1

AC220 = compound: CC(C)(C)c1cc(NC(=O)Nc2ccc(-c3cn4c(n3)sc3cc(OCCN5CCOCC5)ccc34)cc2)no1 [AC220]; conditions: top dose 1.024 µM; top dose inferred
Procedure: as §1

RDEA119 = compound: COc1cc(F)c(F)c(Nc2ccc(I)cc2F)c1NS(=O)(=O)C1(C[C@H](O)CO)CC1 [RDEA119]; conditions: top dose 5 µM, top dose inferred
Procedure: as §1

CUDC-101 = compound: C#Cc1cccc(Nc2ncnc3cc(OC)c(OCCCCCCC(=O)NO)cc23)c1 [CUDC-101]; conditions: top dose 5.12 µM; top dose inferred
Procedure: as §1

| Cell Line | AUC (QS11) | pIC50 (QS11) | AUC (JNK-9L) | pIC50 (JNK-9L) | AUC (OSU-03012) | pIC50 (OSU-03012) | AUC (AC220) | pIC50 (AC220) | AUC (RDEA119; screen: GDSC drug entry 1014) | pIC50 (RDEA119; screen: GDSC drug entry 1014) | AUC (RDEA119; screen: GDSC drug entry 1526) | pIC50 (RDEA119; screen: GDSC drug entry 1526) | AUC (CUDC-101) | pIC50 (CUDC-101) |
| --- | --- | --- | --- | --- | --- | --- | --- | --- | --- | --- | --- | --- | --- | --- |
| H290 (mesothelioma, adherent) | 0.986 | < 4.99 | 0.471 | 6.57 | 0.743 | 5.34 | 0.954 | < 5.99 | 0.711 | 5.94 | 0.821 | 5.59 |  |  |
| NCI-H1299 (large cell lung carcinoma, adherent) | 0.858 | < 4.99 | 0.575 | 6.27 | 0.593 | 5.72 | 0.981 | < 5.99 |  |  | 0.773 | 5.62 | 0.802 | 5.49 |
| HCT-116 (large intestine, adherent) | 0.942 | < 4.99 | 0.412 | 6.73 | 0.797 | 5.15 | 0.986 | < 5.99 | 0.606 | 6.22 | 0.531 | 6.42 | 0.405 | 6.75 |
| MDA-MB-157 (breast, adherent) | 0.975 | < 4.99 | 0.626 | 6.14 | 0.855 | 4.88 | 0.981 | < 5.99 | 0.906 | < 5.30 | 0.985 | < 5.30 | 0.62 | 6.16 |
| Hs766T (pancreas, adherent) | 0.961 | < 4.99 | 0.77 | 5.59 | 0.772 | 5.08 | 0.984 | < 5.99 | 0.673 | 5.95 | 0.737 | 5.72 | 0.857 | < 5.29 |
| A704 (kidney, adherent) | 0.988 | < 4.99 | 0.572 | 6.30 | 0.759 | 5.27 | 0.989 | < 5.99 | 0.877 | 5.32 | 0.869 | 5.36 |  |  |
| ACHN (kidney, adherent) | 0.887 | < 4.99 | 0.501 | 6.49 | 0.672 | 5.49 | 0.982 | < 5.99 |  |  | 0.758 | 5.71 | 0.711 | 5.86 |
| C32 (melanoma, adherent) | 0.986 | < 4.99 | 0.794 | 5.60 | 0.986 | < 4.80 | 0.987 | < 5.99 | 0.329 | 7.00 | 0.483 | 6.55 | 0.949 | < 5.29 |
| HCC70 (breast, adherent) | 0.988 | < 4.99 | 0.501 | 6.49 | 0.896 | < 4.80 | 0.984 | < 5.99 |  |  | 0.881 | < 5.30 | 0.573 | 6.30 |
| SW620 (large intestine, adherent) | 0.776 | 5.44 | 0.563 | 6.33 | 0.561 | 5.84 | 0.99 | < 5.99 | 0.561 | 6.35 | 0.62 | 6.19 |  |  |
| OVCAR-3 (ovary, adherent) | 0.977 | < 4.99 | 0.586 |  | 0.861 | 4.80 | 0.987 | < 5.99 | 0.953 | < 5.30 | 0.958 | < 5.30 | 0.978 | < 5.29 |
| DEL (lymphoid neoplasm, suspension) | 0.91 | 5.04 | 0.515 | 6.46 | 0.662 | 5.60 | 0.994 | < 5.99 | 0.993 | < 5.30 | 0.97 | < 5.30 | 0.451 | 6.62 |
| COLO-205 (large intestine, suspension) | 0.673 | 5.71 | 0.411 | 6.74 | 0.462 | 6.10 | 0.987 | < 5.99 | 0.278 |  | 0.443 | 6.66 | 0.65 | 6.08 |
| OE33 (oesophagus, adherent) | 0.924 | < 4.99 | 0.545 | 6.36 | 0.801 | 5.02 | 0.972 | < 5.99 | 0.88 | < 5.30 | 0.846 | 5.32 | 0.52 | 6.44 |
| TE-441-T (rhabdomyosarcoma, adherent) | 0.951 | < 4.99 | 0.543 | 6.38 | 0.879 | 4.82 | 0.984 | < 5.99 |  |  |  |  |  |  |
| HSC-39 (stomach, suspension) | 0.991 | < 4.99 | 0.744 | 5.85 | 0.974 | < 4.80 | 0.975 | < 5.99 | 0.921 | < 5.30 | 0.911 | < 5.30 |  |  |
| U-2-OS (osteosarcoma, adherent) | 0.984 | < 4.99 | 0.815 | 5.51 | 0.875 | < 4.80 | 0.98 | < 5.99 |  |  | 0.76 | 5.72 |  |  |
| Caov-4 (ovary, adherent) | 0.933 | < 4.99 | 0.843 | < 5.29 | 0.966 | < 4.80 | 0.932 | < 5.99 | 0.789 | 5.46 | 0.841 | < 5.30 |  |  |
| MOLT-4 (lymphoblastic leukaemia, suspension) | 0.921 | < 4.99 | 0.627 | 6.18 | 0.529 | 5.93 |  |  | 0.968 | < 5.30 | 0.971 | < 5.30 | 0.349 | 6.88 |
| HL-60 (acute myeloid leukaemia, suspension) | 0.913 | < 4.99 | 0.582 | 6.28 | 0.646 | 5.62 |  |  | 0.301 | 7.04 | 0.803 | 5.66 | 0.385 | 6.80 |
| KARPAS-231 (B-cell leukaemia, suspension) | 0.657 | 5.81 | 0.486 | 6.53 | 0.467 | 6.08 | 0.926 | 6.00 | 0.99 | < 5.30 | 0.99 | < 5.30 |  |  |

pIC50: −log10 of the molar value. IC50 is the fitted dose that halves viability relative to control wells, and lower means more sensitive; a limit (>, <) means that the fit lies beyond the doses tested. AUC, from the same fit, is the share of area under the viability curve across the 256-fold dose range: 1 means no effect, lower means more sensitive. For some assays here: The top dose, if marked as inferred, is not printed in the source and was worked back from the curve model. For some assays here: Drugs with an entry number were screened twice under separate entries, and the two screens often disagree.
